# Assay results: article PMC12820563
# The list shows a part of the results. The list includes weakly bound sequences.
# Molecular target: T1, MBP-FoxP3dN (UniProt Q99JB6)
# T1 sequence: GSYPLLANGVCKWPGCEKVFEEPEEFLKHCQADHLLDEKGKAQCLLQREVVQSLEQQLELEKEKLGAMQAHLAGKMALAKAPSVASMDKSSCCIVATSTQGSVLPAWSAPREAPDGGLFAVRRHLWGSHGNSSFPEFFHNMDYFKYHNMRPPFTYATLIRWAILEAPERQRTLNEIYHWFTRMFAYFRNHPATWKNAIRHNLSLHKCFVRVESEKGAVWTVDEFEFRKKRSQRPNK
# Assay: PD-seq (MBP pull-down with sequencing)
# Settings: 20 mM Tris-HCl pH 7.5, 100 mM NaCl, 1.5 mM MgCl2, 0.4 uM protein, 0.1 uM dsDNA library, 30 min, room temperature, amylose pull-down; high values mean tight binding; double strand, one strand shown
row,Sequence,binding signal (RPM ratio (pull-down/input))
1,GATGATTGTTCTCCCAGCTGATGAATTCTATGTGTCGAGTAAACAAATTTTCCTAATCTTTCTGTTCAAGCGCCATCTAC,1.96
2,GATGATTGTTCTCCCAGCTGATGAATTTGAGTCCTCGAGTAAACAAATTTTCCTAATCTTTCTGTTCAAGCGCCATCTAC,0.775
3,GATGATTGTTCTCCCAGCTGATGAATTTGGGGTCTCGAGTAAACAAATTTTCCTAATCTTTCTGTTCAAGCGCCATCTAC,1.1
4,GATGATTGTTCTCCCAGCTGATGAATTCGAAATTTCGAGTAAACAAATTTTCCTAATCTTTCTGTTCAAGCGCCATCTAC,0.328
5,GATGATTGTTCTCCCAGCTGATGAATTTCTTACCTCGAGTAAACAAATTTTCCTAATCTTTCTGTTCAAGCGCCATCTAC,0.282
6,GATGATTGTTCTCCCAGCTGATGAATTTGGTGCGTCGAGTAAACAAATTTTCCTAATCTTTCTGTTCAAGCGCCATCTAC,1.7
7,GATGATTGTTCTCCCAGCTGATGAATTATCGTTATCGAGTAAACAAATTTTCCTAATCTTTCTGTTCAAGCGCCATCTAC,0.751
8,GATGATTGTTCTCCCAGCTGATGAATTACTTGGATCGAGTAAACAAATTTTCCTAATCTTTCTGTTCAAGCGCCATCTAC,0.225
9,GATGATTGTTCTCCCAGCTGATGAATTTCGCGACTCGAGTAAACAAATTTTCCTAATCTTTCTGTTCAAGCGCCATCTAC,2.19
10,GATGATTGTTCTCCCAGCTGATGAATTAGGGGGTTCGAGTAAACAAATTTTCCTAATCTTTCTGTTCAAGCGCCATCTAC,0.583
11,GATGATTGTTCTCCCAGCTGATGAATTTCGATCGTCGAGTAAACAAATTTTCCTAATCTTTCTGTTCAAGCGCCATCTAC,0.433
12,GATGATTGTTCTCCCAGCTGATGAATTACCTCTTTCGAGTAAACAAATTTTCCTAATCTTTCTGTTCAAGCGCCATCTAC,0.358
13,GATGATTGTTCTCCCAGCTGATGAATTGGCACATTCGAGTAAACAAATTTTCCTAATCTTTCTGTTCAAGCGCCATCTAC,0.576
14,GATGATTGTTCTCCCAGCTGATGAATTCGACGTTTCGAGTAAACAAATTTTCCTAATCTTTCTGTTCAAGCGCCATCTAC,0.772
15,GATGATTGTTCTCCCAGCTGATGAATTCTCGACATCGAGTAAACAAATTTTCCTAATCTTTCTGTTCAAGCGCCATCTAC,0.377
16,GATGATTGTTCTCCCAGCTGATGAATTATGCGTGTCGAGTAAACAAATTTTCCTAATCTTTCTGTTCAAGCGCCATCTAC,5.88
17,GATGATTGTTCTCCCAGCTGATGAATTCGAACCCTCGAGTAAACAAATTTTCCTAATCTTTCTGTTCAAGCGCCATCTAC,0.236
18,GATGATTGTTCTCCCAGCTGATGAATTTCTAATATCGAGTAAACAAATTTTCCTAATCTTTCTGTTCAAGCGCCATCTAC,0.363
19,GATGATTGTTCTCCCAGCTGATGAATTGAATGTTTCGAGTAAACAAATTTTCCTAATCTTTCTGTTCAAGCGCCATCTAC,1.11
20,GATGATTGTTCTCCCAGCTGATGAATTAACGCCGTCGAGTAAACAAATTTTCCTAATCTTTCTGTTCAAGCGCCATCTAC,0.676
21,GATGATTGTTCTCCCAGCTGATGAATTTCCAGGGTCGAGTAAACAAATTTTCCTAATCTTTCTGTTCAAGCGCCATCTAC,0.127

row,Sequence,binding signal (RPM ratio (pull-down/input))
1,GATGATTGTTCTCCCAGCTGATGAATTCCAACCGTCGAGTAAACAAATTTTCCTAATCTTTCTGTTCAAGCGCCATCTAC,0.268
2,GATGATTGTTCTCCCAGCTGATGAATTCCATCCCTCGAGTAAACAAATTTTCCTAATCTTTCTGTTCAAGCGCCATCTAC,0.43
3,GATGATTGTTCTCCCAGCTGATGAATTACTTGAGTCGAGTAAACAAATTTTCCTAATCTTTCTGTTCAAGCGCCATCTAC,0.261
4,GATGATTGTTCTCCCAGCTGATGAATTATGCGAATCGAGTAAACAAATTTTCCTAATCTTTCTGTTCAAGCGCCATCTAC,0.729
5,GATGATTGTTCTCCCAGCTGATGAATTCGGCTAGTCGAGTAAACAAATTTTCCTAATCTTTCTGTTCAAGCGCCATCTAC,1.02
6,GATGATTGTTCTCCCAGCTGATGAATTCCTGGTTTCGAGTAAACAAATTTTCCTAATCTTTCTGTTCAAGCGCCATCTAC,0.327
7,GATGATTGTTCTCCCAGCTGATGAATTGATGGTCTCGAGTAAACAAATTTTCCTAATCTTTCTGTTCAAGCGCCATCTAC,0.916
8,GATGATTGTTCTCCCAGCTGATGAATTTGGGGTGTCGAGTAAACAAATTTTCCTAATCTTTCTGTTCAAGCGCCATCTAC,1.47
9,GATGATTGTTCTCCCAGCTGATGAATTTGACTGATCGAGTAAACAAATTTTCCTAATCTTTCTGTTCAAGCGCCATCTAC,0.393
10,GATGATTGTTCTCCCAGCTGATGAATTTTAACTTTCGAGTAAACAAATTTTCCTAATCTTTCTGTTCAAGCGCCATCTAC,0.401
11,GATGATTGTTCTCCCAGCTGATGAATTATCTCGTTCGAGTAAACAAATTTTCCTAATCTTTCTGTTCAAGCGCCATCTAC,0.367
12,GATGATTGTTCTCCCAGCTGATGAATTTTGACAATCGAGTAAACAAATTTTCCTAATCTTTCTGTTCAAGCGCCATCTAC,0.626
13,GATGATTGTTCTCCCAGCTGATGAATTCTAGGACTCGAGTAAACAAATTTTCCTAATCTTTCTGTTCAAGCGCCATCTAC,0.242
14,GATGATTGTTCTCCCAGCTGATGAATTTGGAAAATCGAGTAAACAAATTTTCCTAATCTTTCTGTTCAAGCGCCATCTAC,0.201
15,GATGATTGTTCTCCCAGCTGATGAATTGATAGGATCGAGTAAACAAATTTTCCTAATCTTTCTGTTCAAGCGCCATCTAC,0.335
16,GATGATTGTTCTCCCAGCTGATGAATTCCCCTATTCGAGTAAACAAATTTTCCTAATCTTTCTGTTCAAGCGCCATCTAC,0.298
17,GATGATTGTTCTCCCAGCTGATGAATTATTGGGATCGAGTAAACAAATTTTCCTAATCTTTCTGTTCAAGCGCCATCTAC,0.71
18,GATGATTGTTCTCCCAGCTGATGAATTAACCCCGTCGAGTAAACAAATTTTCCTAATCTTTCTGTTCAAGCGCCATCTAC,0.214
19,GATGATTGTTCTCCCAGCTGATGAATTCCTGCATTCGAGTAAACAAATTTTCCTAATCTTTCTGTTCAAGCGCCATCTAC,5.61
20,GATGATTGTTCTCCCAGCTGATGAATTCCAGTTCTCGAGTAAACAAATTTTCCTAATCTTTCTGTTCAAGCGCCATCTAC,0.521
21,GATGATTGTTCTCCCAGCTGATGAATTAACTTGGTCGAGTAAACAAATTTTCCTAATCTTTCTGTTCAAGCGCCATCTAC,0.401

row,Sequence,binding signal (RPM ratio (pull-down/input))
1,GATGATTGTTCTCCCAGCTGATGAATTTCCAGTGTCGAGTAAACAAATTTTCCTAATCTTTCTGTTCAAGCGCCATCTAC,0.319
2,GATGATTGTTCTCCCAGCTGATGAATTTGTAAGATCGAGTAAACAAATTTTCCTAATCTTTCTGTTCAAGCGCCATCTAC,0.496
3,GATGATTGTTCTCCCAGCTGATGAATTTTACGCATCGAGTAAACAAATTTTCCTAATCTTTCTGTTCAAGCGCCATCTAC,1.01
4,GATGATTGTTCTCCCAGCTGATGAATTGAACAGGTCGAGTAAACAAATTTTCCTAATCTTTCTGTTCAAGCGCCATCTAC,0.192
5,GATGATTGTTCTCCCAGCTGATGAATTCTACGCATCGAGTAAACAAATTTTCCTAATCTTTCTGTTCAAGCGCCATCTAC,0.854
6,GATGATTGTTCTCCCAGCTGATGAATTGGACTTCTCGAGTAAACAAATTTTCCTAATCTTTCTGTTCAAGCGCCATCTAC,0.397
7,GATGATTGTTCTCCCAGCTGATGAATTGTTCTCTTCGAGTAAACAAATTTTCCTAATCTTTCTGTTCAAGCGCCATCTAC,0.401
8,GATGATTGTTCTCCCAGCTGATGAATTGGGTCCCTCGAGTAAACAAATTTTCCTAATCTTTCTGTTCAAGCGCCATCTAC,0.341
9,GATGATTGTTCTCCCAGCTGATGAATTTATACACTCGAGTAAACAAATTTTCCTAATCTTTCTGTTCAAGCGCCATCTAC,1.07
10,GATGATTGTTCTCCCAGCTGATGAATTCTATAACTCGAGTAAACAAATTTTCCTAATCTTTCTGTTCAAGCGCCATCTAC,0.329
11,GATGATTGTTCTCCCAGCTGATGAATTACCCTGTTCGAGTAAACAAATTTTCCTAATCTTTCTGTTCAAGCGCCATCTAC,0.292
12,GATGATTGTTCTCCCAGCTGATGAATTATTTGCCTCGAGTAAACAAATTTTCCTAATCTTTCTGTTCAAGCGCCATCTAC,2.04
13,GATGATTGTTCTCCCAGCTGATGAATTCCCCGTCTCGAGTAAACAAATTTTCCTAATCTTTCTGTTCAAGCGCCATCTAC,0.252
14,GATGATTGTTCTCCCAGCTGATGAATTCGAGCACTCGAGTAAACAAATTTTCCTAATCTTTCTGTTCAAGCGCCATCTAC,0.419
15,GATGATTGTTCTCCCAGCTGATGAATTACATCAATCGAGTAAACAAATTTTCCTAATCTTTCTGTTCAAGCGCCATCTAC,0.634
16,GATGATTGTTCTCCCAGCTGATGAATTCGACACCTCGAGTAAACAAATTTTCCTAATCTTTCTGTTCAAGCGCCATCTAC,0.881
17,GATGATTGTTCTCCCAGCTGATGAATTGGCGGCGTCGAGTAAACAAATTTTCCTAATCTTTCTGTTCAAGCGCCATCTAC,0.539
18,GATGATTGTTCTCCCAGCTGATGAATTATTACGTTCGAGTAAACAAATTTTCCTAATCTTTCTGTTCAAGCGCCATCTAC,0.524
19,GATGATTGTTCTCCCAGCTGATGAATTCCGGGTTTCGAGTAAACAAATTTTCCTAATCTTTCTGTTCAAGCGCCATCTAC,0.579
20,GATGATTGTTCTCCCAGCTGATGAATTCCGAAGCTCGAGTAAACAAATTTTCCTAATCTTTCTGTTCAAGCGCCATCTAC,0.243
21,GATGATTGTTCTCCCAGCTGATGAATTGTGTGTATCGAGTAAACAAATTTTCCTAATCTTTCTGTTCAAGCGCCATCTAC,6.39
